In PubChem BioAssay (NCATS):
Where “and” joins values, the source holds several entries; their conditions need not be identical. Identical values can stand only once. The inconclusive results got no clear call from the source; some entries with a clear call stand among them for comparison. For some of these results: A potency beside an inconclusive call is a rough fit, not a confirmed value. For some of these results: “Side channel” marks fits to a control or component signal instead of the main read-out. Calls of active or inactive are those of the source. Unless noted, the call rests on the fitted dose curve.

Tests used:
[1] = target: Estrogen receptor (Homo sapiens) (UniProt P03372); assay: qHTS assay for small molecule agonists of estrogen receptor alpha signaling (AID 588514); conditions: ER-alpha-UAS-bla HEK293, beta-lactamase ratio, 18 h; activation: at 76.8 µM (top of the series), percent of full estradiol response, vehicle zero; further: nearly all actives have a fitted effect of over 70% in size; further: potency means the concentration at half of the fitted maximal effect;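 on activation: 0% = vehicle only and 100% = reference agonist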
Sequence of UniProt P03372 (P03372 whole entry, looked up): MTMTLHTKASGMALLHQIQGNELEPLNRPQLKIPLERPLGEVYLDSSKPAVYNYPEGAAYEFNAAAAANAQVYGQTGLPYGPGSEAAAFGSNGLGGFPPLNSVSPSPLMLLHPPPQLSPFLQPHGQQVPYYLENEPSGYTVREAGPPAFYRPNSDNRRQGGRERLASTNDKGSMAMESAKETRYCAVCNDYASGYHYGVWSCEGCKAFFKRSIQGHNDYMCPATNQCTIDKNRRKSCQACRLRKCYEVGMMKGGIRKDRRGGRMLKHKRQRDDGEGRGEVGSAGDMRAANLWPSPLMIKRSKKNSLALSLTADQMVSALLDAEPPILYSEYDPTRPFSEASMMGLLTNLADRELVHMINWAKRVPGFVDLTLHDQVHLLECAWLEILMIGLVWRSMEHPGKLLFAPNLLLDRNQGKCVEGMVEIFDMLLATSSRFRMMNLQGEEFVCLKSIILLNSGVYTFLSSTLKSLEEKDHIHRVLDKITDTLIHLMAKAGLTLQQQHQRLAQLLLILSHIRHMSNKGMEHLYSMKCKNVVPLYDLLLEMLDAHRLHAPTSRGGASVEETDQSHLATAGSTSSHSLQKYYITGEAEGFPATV
Procedure, shortened: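 Reporter-gene assay. […] controls beta-lactamase in HEK 293 GripTite cells; after 18 hrs with compound, CCF4 substrate is added for 2 hrs and fluorescence is read.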

[2] = qHTS assay for small molecule antagonists of the retinoid-related orphan receptor gamma (ROR-gamma) signaling pathway - cell viability counter screen (AID 720652; active means well fitted curve in the direction sought with a large enough effect in the repeat runs; inconclusive means weak or mixed curves; inactive means no such curve, though single readings can be large; an effect the other way counts as inactive or inconclusive;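 further: CHO reporter cells with doxycycline-induced ROR-gamma expression; compound exposure lasted 16 hr before ATP read; on the % scale 0 is the no-effect control and ±100 the full control effect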)
Procedure, shortened: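 Cytotoxicity is quantified via intracellular ATP (CellTiter-Glo luminescence) in doxycycline-induced CHO ROR response element-luciferase reporter cells treated with compound for 16 hr at 37 C, 5% CO2.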

[3] = target: Estrogen receptor (Homo sapiens) (UniProt P03372); assay: qHTS assay for small molecule antagonists of estrogen receptor alpha signaling (AID 588513; active means well fitted curve in the direction sought with a large enough effect in the signal ratio, with a control signal flat, not every such curve was filed as active; inconclusive means small, poorly fitted or top-dose-only effect, or effect the other way, or a change in a side signal; inactive means no such curve, though single readings can be large or run the other way; the % refers to the signal ratio; further: potency means the concentration at half of the fitted maximal effect; on activity, negative = inhibition: on the % scale 0 is the no-effect control and ±100 the full control effect); conditions: ER-alpha-UAS-bla HEK293, beta-lactamase ratio, antagonist mode; activity, negative = inhibition: at 76.9 µM (top of the series) unless noted
Procedure, shortened: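 Beta-lactamase reporter, antagonist mode, HEK 293 GripTite cells; 0.5nM E2 stimulus, 18 h, 37 C; CCF4 dye 2 h RT; fluorescence. IC50 and efficacy from Hill fits, normalized to E2 and DMSO.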

[4] = target: Bile acid receptor (Homo sapiens) (UniProt Q96RI1); assay: qHTS assay for small molecule antagonists of farnesoid X receptor signaling (AID 588526); conditions: HEK293T FXR-UAS-bla, beta-lactamase ratio, antagonist mode; activity change, negative = inhibition: at 76.7 µM (top of the series); further: on the % scale 0 is the no-effect control and ±100 the full control effect
Procedure, shortened: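 Beta-lactamase reporter antagonist mode: HEK293T FXR-UAS-bla cells, titrated compound, CDCA stimulation, 16 h 37 C, CCF4 dye 2 h RT. Data normalized to CDCA 50 uM and DMSO; Hill-fit IC50.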

[5] = target: Thyroid hormone receptor beta (Homo sapiens) (UniProt P10828); assay: qHTS assay for small molecule agonists of thyroid hormone receptor beta signaling (AID 588545); conditions: TR-UAS-bla GripTite HEK 293, beta-lactamase ratio, agonist mode, 18 h; activation: at 76.7 µM, percent of T3 response, DMSO as zero; further: potency means the concentration at half of the fitted maximal effect
Sequence of UniProt P10828 (P10828 whole entry, looked up): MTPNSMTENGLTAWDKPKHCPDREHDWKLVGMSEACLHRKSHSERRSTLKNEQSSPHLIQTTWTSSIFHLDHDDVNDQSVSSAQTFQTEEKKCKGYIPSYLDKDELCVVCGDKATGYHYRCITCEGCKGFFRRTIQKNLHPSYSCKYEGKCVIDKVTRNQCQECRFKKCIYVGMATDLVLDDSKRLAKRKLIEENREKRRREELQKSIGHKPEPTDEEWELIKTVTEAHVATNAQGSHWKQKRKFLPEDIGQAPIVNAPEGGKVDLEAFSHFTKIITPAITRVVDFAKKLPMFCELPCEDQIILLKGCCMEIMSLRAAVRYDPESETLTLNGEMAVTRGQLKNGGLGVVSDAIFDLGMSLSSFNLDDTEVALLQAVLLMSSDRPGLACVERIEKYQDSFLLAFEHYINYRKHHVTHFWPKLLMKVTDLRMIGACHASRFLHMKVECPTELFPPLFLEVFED
Procedure, shortened: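 TR-UAS-bla GripTite HEK 293 cells (2500/well, medium with 2% charcoal/dextran FBS) were treated in agonist mode for 18 h at 37 C, titrated. Beta-lactamase was read by CCF4 ratio after 2 h; normalized to 10 nM T3 (100%) and DMSO, Hill-fitted for EC50 and efficacy.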

[6] = target: Cytochrome P450 2D6 (Homo sapiens) (UniProt P10635); assay: Cytochrome P450 family 2 subfamily D member 6 (CYP2D6) small molecule antagonists: luciferase biochemical (cell-free) qHTS assay (AID 1645840; active means well fitted curve in the direction sought with a large enough effect in the repeat runs; inconclusive means weak or mixed curves; inactive means no such curve, though single readings can be large; an effect the other way counts as inactive or inconclusive; further: on the % scale 0 is the no-effect control and ±100 the full control effect; nearly all actives have a fitted effect of over 55% in size)
Sequence of UniProt P10635 (P10635 whole entry, looked up): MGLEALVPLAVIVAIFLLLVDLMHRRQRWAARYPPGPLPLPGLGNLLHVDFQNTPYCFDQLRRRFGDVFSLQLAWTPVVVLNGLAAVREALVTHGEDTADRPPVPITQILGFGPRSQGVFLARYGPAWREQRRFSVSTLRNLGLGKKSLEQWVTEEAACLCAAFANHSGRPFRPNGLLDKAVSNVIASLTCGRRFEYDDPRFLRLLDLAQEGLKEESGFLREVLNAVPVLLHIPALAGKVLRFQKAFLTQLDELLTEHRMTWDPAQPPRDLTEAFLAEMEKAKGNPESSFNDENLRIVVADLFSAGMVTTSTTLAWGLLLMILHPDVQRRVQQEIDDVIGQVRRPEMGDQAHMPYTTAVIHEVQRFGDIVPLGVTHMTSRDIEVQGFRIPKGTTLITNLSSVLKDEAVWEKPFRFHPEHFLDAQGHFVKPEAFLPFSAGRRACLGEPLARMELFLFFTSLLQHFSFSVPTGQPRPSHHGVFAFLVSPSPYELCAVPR
Procedure, shortened: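 P450-Glo luminescent screen: recombinant CYP2D6 enzyme–proluciferin substrate mix preincubated with compound 10 min at room temperature, then NADPH regeneration added for 1 h at room temperature. Detection reagent added for 20 min; luciferin light read as relative luminescence units.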

[7] = target: Mitogen-activated protein kinase 10 (Mus musculus) (UniProt Q61831); assay: JNK3 AlphaScreen Assay (AID 530; active means well fitted curve in either direction with a large enough effect, not every such curve was filed as active; inconclusive means small, poorly fitted or top-dose-only effect, or another doubt;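 further: kinase came from lysate of stimulated human HepG2 cells; signal reports phosphorylation of biotinylated GST-cJun 1-79 at Ser73 with 10 µM ATP; potency means the concentration at half of the fitted maximal effect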); conditions: JNK3 lysate, c-Jun phosphorylation; activity change, negative = inhibition: at 57.1 µM (top of the series)
Procedure, shortened: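 Room-temperature AlphaScreen kinase assay; pre-activated HepG2 lysate as JNK3 source, biotin-GST-cJun(1-79) substrate, 10 uM ATP, compound 15 min preincubation.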

[8] = Cell Viability - N2a (AID 540; active means well fitted curve in the direction sought with a large enough effect; inconclusive means small, poorly fitted or top-dose-only effect, or another doubt; inactive means no such curve, though single readings can be large; an effect the other way counts as inactive or inconclusive;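 further: cells exposed to compound for 40 h at 37 °C; plate controls were DMSO alone for no effect and tamoxifen control for full effect; nearly all actives have a fitted effect of over 45% in size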); conditions: N2a mouse neuroblastoma cell viability; activity change, negative = cytotoxicity: at 92.2 µM (top of the series)
Procedure, shortened: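 First, 1500 N2a cells per well incubate 5 hr at 37 °C; next, compounds are added and incubated 40 hr at 37 °C; finally CellTiter-Glo is added and luminescence read after 20 min, with AC50 derived by Hill modeling.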

[9] = Cell Viability - HUV-EC-C (AID 542; active means well fitted curve in the direction sought with a large enough effect; inconclusive means small, poorly fitted or top-dose-only effect, or another doubt; inactive means no such curve, though single readings can be large; an effect the other way counts as inactive or inconclusive;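 further: potency means the concentration at half of the fitted maximal effect; cells exposed to compound for 40 hours; nearly all actives have a fitted effect of over 35% in size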)
Procedure, shortened: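 Decrease in cellular ATP, quantified by luciferase luminescence, reflects toxicity in normal human vascular endothelial HUV-EC-C cells given compound for 40 hr in complete culture medium. Values are AC50s from concentration-response curves.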

[10] = Cellular Toxicity (caspase-3) Jurkat (AID 655; active means well fitted curve in the direction sought with a large enough effect; inconclusive means small, poorly fitted or top-dose-only effect, or another doubt; inactive means no such curve, though single readings can be large; an effect the other way counts as inactive or inconclusive;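 further: cells exposed to compound for 16 h at 37 °C before reading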); conditions: Jurkat caspase-3 activation, luminescence, DMSO = 0%, tamoxifen = 100%; at 92.2 µM (top of the series)
Procedure, shortened: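 Luminescent caspase-3/7 readout (aminoluciferin substrate cleavage) in human T-cell leukemia Jurkat cells after 16 hr compound exposure. Concentration-response normalized to DMSO and 100 uM tamoxifen; AC50 by standard Hill equation.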

[11] = Cell Viability - LYMP2-015 (AID 971; active means well fitted curve in the direction sought with a large enough effect; inconclusive means small, poorly fitted or top-dose-only effect, or another doubt; inactive means no such curve, though single readings can be large; an effect the other way counts as inactive or inconclusive;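 further: potency means the concentration at half of the fitted maximal effect; cells exposed to compound for 24 h; nearly all actives have a fitted effect of over 55% in size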)
Procedure, shortened: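 Acute toxicity was scored as a concentration-dependent drop in intracellular ATP in lymphoblastoid cells after 24 hr compound exposure in complete medium. Detection used CellTiter-Glo luciferase luminescence.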

[12] = Cell Viability - LYMP2-024 (AID 988; active means well fitted curve in the direction sought with a large enough effect; inconclusive means small, poorly fitted or top-dose-only effect, or another doubt; inactive means no such curve, though single readings can be large; an effect the other way counts as inactive or inconclusive;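 further: potency means the concentration at half of the fitted maximal effect; cells exposed to compound for 24 hr at 37 °C; nearly all actives have a fitted effect of over 60% in size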)
Procedure, shortened: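 Acute toxicity is measured as concentration-dependent loss of intracellular ATP in a human lymphoblastoid line treated 24 hours at 37 C. Luciferase luminescence quantifies ATP; AC50 values come from standard Hill-equation modelling.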

[13] = target: Peroxisome proliferator-activated receptor delta (Homo sapiens) (UniProt Q03181); assay: qHTS assay for small molecule agonists of peroxisome proliferator-activated receptor delta signaling (AID 588534); conditions: HEK293T PPARdelta-UAS-bla, beta-lactamase ratio, 18 h; activation: at 76.7 µM (top of the series); further: potency means the concentration at half of the fitted maximal effect
Sequence of UniProt Q03181 (Q03181 whole entry, looked up): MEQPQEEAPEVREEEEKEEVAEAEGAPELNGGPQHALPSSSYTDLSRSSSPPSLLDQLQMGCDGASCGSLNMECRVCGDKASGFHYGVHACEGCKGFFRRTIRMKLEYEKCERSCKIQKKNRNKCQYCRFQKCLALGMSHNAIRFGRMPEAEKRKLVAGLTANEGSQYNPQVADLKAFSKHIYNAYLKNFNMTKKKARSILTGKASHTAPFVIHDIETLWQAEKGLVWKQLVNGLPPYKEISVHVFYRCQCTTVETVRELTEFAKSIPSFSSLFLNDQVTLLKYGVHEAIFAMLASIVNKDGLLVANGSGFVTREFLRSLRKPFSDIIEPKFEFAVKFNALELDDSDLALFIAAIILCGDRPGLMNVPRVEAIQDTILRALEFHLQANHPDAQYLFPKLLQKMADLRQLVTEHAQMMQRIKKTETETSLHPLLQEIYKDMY
Procedure, shortened: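 Reporter cells were plated and held 5 hrs at 37 C before compounds were added. After 18 hrs at 37 C, CCF4 dye was loaded for 2 hrs at RT and fluorescence measured.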

[14] = target: Peroxisome proliferator-activated receptor delta (Homo sapiens) (UniProt Q03181); assay: qHTS assay for small molecule antagonists of peroxisome proliferator-activated receptor delta signaling (AID 588535; active means well fitted inhibition curve with a large enough effect in the signal ratio, with a control signal flat, not every such curve was filed as active; inconclusive means small, poorly fitted or top-dose-only effect, or effect the other way, or a change in a side signal; inactive means no such curve, though single readings can be large or run the other way; the % refers to the signal ratio; further: potency means the concentration at half of the fitted maximal effect); conditions: HEK293T PPARd-UAS-bla, beta-lactamase FRET ratio, 18 h; activity change, negative = inhibition: at 76.7 µM (top of the series)
Procedure, shortened: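 Cell-based beta-lactamase assay in antagonist mode: 4000 HEK293T PPAR-delta-UAS-bla cells per well, 5 hr preincubation then 18 hr compound incubation at 37 C. IC50 obtained by Hill equation fitting.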

[15] = target: Retinoic acid receptor RXR-alpha (Homo sapiens) (UniProt P19793); assay: qHTS assay for small molecule agonists of retinoid X receptor alpha signaling (AID 588544); conditions: HEK293T RXRa-UAS-bla, beta-lactamase reporter, 18 h; activation: at 76.7 µM (top of the series); further: potency means the concentration at half of the fitted maximal effect
Sequence of UniProt P19793 (P19793 whole entry, looked up): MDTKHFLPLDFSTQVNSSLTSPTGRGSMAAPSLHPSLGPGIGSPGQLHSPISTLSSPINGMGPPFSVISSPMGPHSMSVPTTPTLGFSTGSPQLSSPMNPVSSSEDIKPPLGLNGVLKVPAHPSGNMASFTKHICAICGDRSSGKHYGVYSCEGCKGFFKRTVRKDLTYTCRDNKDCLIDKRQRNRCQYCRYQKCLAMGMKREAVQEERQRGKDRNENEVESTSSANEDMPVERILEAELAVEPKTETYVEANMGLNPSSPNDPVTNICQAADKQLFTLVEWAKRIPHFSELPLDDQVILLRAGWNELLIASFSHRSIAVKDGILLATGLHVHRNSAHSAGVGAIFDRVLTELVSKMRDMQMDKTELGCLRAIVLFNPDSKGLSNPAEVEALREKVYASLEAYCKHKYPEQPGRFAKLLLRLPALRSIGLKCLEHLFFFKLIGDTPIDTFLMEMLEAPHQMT

[16] = qHTS assay for small molecule agonists of the antioxidant response element (ARE) signaling pathway measured by Nrf2-dependant transcriptional activity (AID 720636; active means well fitted curve in the direction sought with a large enough effect in the repeat runs; inconclusive means weak or mixed curves; inactive means no such curve, though single readings can be large; an effect the other way counts as inactive or inconclusive; further: potency means the concentration at half of the fitted maximal effect)
Procedure, shortened: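 We exposed ARE-luc HepG2 cells, seeded in assay medium with 1% dialyzed FBS and allowed 6 hr to adhere, to test compounds overnight (16 hr, 37 C) before measuring luciferase with ONE-Glo.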

[17] = qHTS Assay for Identification of Small Molecule Agonists for Hypoxia Response Element Signaling Pathway (AID 914; active means well fitted activation curve with a large enough effect in the signal ratio, with a control signal flat, not every such curve was filed as active; inconclusive means small, poorly fitted or top-dose-only effect, or effect the other way, or a change in a side signal; the % refers to the signal ratio; further: potency means the concentration at half of the fitted maximal effect); conditions: ME-180 (cervical carcinoma) HRE-bla reporter, beta-lactamase ratio, CoCl2, 17 h; activation: stronger effect = higher value
Procedure, shortened: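 Reporter activity (beta-lactamase, CCF4 460nm/530nm ratio) in HRE-bla ME-180 cells is recorded after 17 h compound exposure with EC50 CoCl2 at 37 degrees Celsius. AC50 values come from titration data.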
Tags describe the fitted curve by direction and shape or compound fluorescence and quenching.

Q: For `NCCN`, which Potency [1] is on record?
A: Its Potency is active: 0.199 µM.

Q: What about the Potency [2] of the same molecule?
A: The Potency was “inactive”.

Q: Which activity, negative = inhibition [3] does the source give for `OC[C@H]1O[C@@](CO)(O[C@H]2O[C@H](CO)[C@@H](O)[C@H](O)[C@H]2O)[C@@H](O)[C@@H]1O` here?
A: The activity, negative = inhibition was inconclusive: -15.3%.

Q: What about the activity change, negative = inhibition [4] of the same molecule?
A: The activity change, negative = inhibition was inconclusive: -7.59%.

Q: For `C[C@H](CCC(=O)O)[C@H]1CC[C@H]2[C@@H]3[C@H](O)C[C@@H]4C[C@H](O)CC[C@]4(C)[C@H]3C[C@H](O)[C@]12C`, which Potency [5] is on record?
A: The Potency was inconclusive: 1.58 µM [side channel, falling, single point].

Q: With `CCCCC(=O)O[C@H]1CC[C@H]2[C@@H]3CCc4cc(O)ccc4[C@H]3CC[C@]12C` as the molecule, how does the Potency [6] read?
A: Its Potency is “inactive”.

Q: Which Potency [6] does the source give for `O=Cc1ccccc1C=O` here?
A: Its Potency is “inactive”.

Q: For `O=c1n(CC2CO2)c(=O)n(CC2CO2)c(=O)n1CC1CO1` (configuration not stated), which Potency [7] is on record?
A: Its Potency is inconclusive: 0.00316 µM [activator, full curve, poor fit].

Q: What about the activity change, negative = cytotoxicity [8] of the same molecule?
A: Its activity change, negative = cytotoxicity is inconclusive: -68.4%.

Q: What about the Potency [9] of the same molecule?
A: Its Potency is inconclusive: 79.4 µM [falling, single point].

Q: What about the caspase-3 activation [10] of the same molecule?
A: The caspase-3 activation was inconclusive: 71.4%.

Q: And the Potency [11]?
A: Its Potency is active: 39.8 µM.

Q: What about the Potency [12] of the same molecule?
A: The Potency was active: 39.8 µM.

Q: What about the Potency [3] of the same molecule?
A: The Potency was “inactive and inconclusive: 11.2 µM [activator, full curve]”.

Q: What about the Potency [1] of the same molecule?
A: The Potency was inconclusive: 39.8 µM [side channel, rising, partial curve].

Q: What about the activation [1] of the same molecule?
A: The activation was inconclusive: -0.279%.

Q: And the Potency [13]?
A: The Potency was inconclusive: 10 µM [side channel, rising, full curve] and inconclusive: 15.8 µM [side channel, rising, full curve].

Q: What about the Potency [14] of the same molecule?
A: The Potency was inconclusive: 35.5 µM [fluorescent, side channel, partial curve, poor fit] and inconclusive: 14.1 µM [activator, partial curve, poor fit].

Q: And the Potency [15]?
A: Its Potency is inconclusive: 7.94 µM [side channel, rising, full curve] and inconclusive: 15.8 µM [side channel, rising, full curve].

Q: And the Potency [16]?
A: The Potency was active: 59.6 µM and active: 61.1 µM.

Q: With `CCC(=O)Oc1ccc2c(c1)CC[C@@H]1[C@@H]2CC[C@]2(C)[C@@H](OC(=O)CC)CC[C@@H]12` as the molecule, how does the Potency [6] read?
A: The Potency was “inactive”.

Q: For `NC(N)=NCc1cccc(I)c1`, which Potency [17] is on record?
A: The Potency was inconclusive: 12.6 µM [inhibitor, partial curve].
